From PubChem BioAssay AID1159614 (National Center for Advancing Translational Sciences (NCATS), 2016)
Among all 45,000 compounds or so, about 65 (0.1%) were called active. Calls follow the shape of the dose curve; as a rule, active = well fitted activation curve with a large enough effect; inconclusive = small, poorly fitted or top-dose-only effect; inactive = no such curve, though single readings can be large or run the other way. Some of the results follow.

These compounds were tested against Galactocerebrosidase (Homo sapiens) (UniProt P54803) (assay: A Novel Cell-Based Assay to Identify Small Molecules for B -Galactocerebrosidase). Conditions: 145M-Twi-hGALC-G270D cells (Twitcher mouse brain line with human GALC G270D), HMU-beta-Gal fluorescence, 48 h; series mostly up to 57.5 µM; activation: at the top concentration.
How it was run: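 Brain-derived Twitcher mouse 145M-Twi cells stably expressing human GALC-G270D or wild-type GALC, treated live, then residual GALC activity read by fluorescence of HMU-b-Gal substrate (0.1 mM final) in citrate-phosphate buffer pH 5.2 with sodium taurocholate. Signal increase indicates enhancement.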
Also: 0% is about no effect; nearly all actives have a fitted effect of over 65% in size.

Sequence of UniProt P54803 (P54803 whole entry, looked up): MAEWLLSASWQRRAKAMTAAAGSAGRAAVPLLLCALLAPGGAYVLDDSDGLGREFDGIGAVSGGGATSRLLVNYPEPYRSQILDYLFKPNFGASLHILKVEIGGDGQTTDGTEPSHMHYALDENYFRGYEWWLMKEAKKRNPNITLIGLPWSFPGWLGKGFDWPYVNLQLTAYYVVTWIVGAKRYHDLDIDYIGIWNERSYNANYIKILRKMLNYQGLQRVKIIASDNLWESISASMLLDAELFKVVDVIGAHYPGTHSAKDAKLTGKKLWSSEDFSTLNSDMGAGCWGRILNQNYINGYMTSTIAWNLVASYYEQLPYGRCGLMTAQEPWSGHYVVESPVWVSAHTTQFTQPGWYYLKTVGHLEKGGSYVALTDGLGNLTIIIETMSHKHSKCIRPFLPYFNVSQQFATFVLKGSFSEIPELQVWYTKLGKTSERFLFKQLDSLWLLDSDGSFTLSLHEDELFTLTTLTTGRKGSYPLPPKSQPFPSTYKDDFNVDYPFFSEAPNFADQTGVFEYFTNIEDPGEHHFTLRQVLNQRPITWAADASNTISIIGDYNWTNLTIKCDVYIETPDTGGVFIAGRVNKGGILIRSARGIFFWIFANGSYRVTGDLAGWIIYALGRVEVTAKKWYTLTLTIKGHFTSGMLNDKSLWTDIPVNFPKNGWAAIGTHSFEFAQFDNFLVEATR

activation, inactive:
CCCCc1ccc(NC(=O)c2ccc3c(c2)CCN3S(=O)(=O)c2ccccc2)cc1 -27.6%, COC(=O)c1ccc(Cn2c(SCC(=O)N(C)c3ccccc3)nc3ccccc32)cc1 -19.3%, CCOc1cc(C(=O)Nc2ccc(S(=O)(=O)Nc3cc(OC)nc(OC)n3)cc2)cc(OCC)c1OCC -37.7%, Cc1ccc(C)c(OC(=O)CSc2nnc(-c3ccc4c(c3)OCO4)o2)c1 -9.61%, O=C(NCc1ccccc1)c1ccc2c(c1)nc1n2CCCCC1 -9.66%, Cc1cc(C)cc(NC(=O)Cn2c3ncccc3c(=O)n2-c2ccc(C)c(C)c2)c1 -13.1%, Cc1ccc(CSc2ncc(Cl)c(C(=O)Nc3sc4c(c3C(N)=O)CCCC4)n2)cc1 -14.1%, O=C(Cn1cnc2nc3c(cc2c1=O)CCCC3)N1CCN(c2ccccc2)CC1 1.13%, CCc1nn2c(=O)cc(COc3ccc(/C=C(\C#N)C(=O)Nc4ccc(C)cc4)cc3)nc2s1 2.84%, Cc1cccc(N2CCN(Cc3nnc(-c4ccc5c(c4)OCO5)o3)CC2)c1C -5.52%, COc1ccc(NC(=O)Nc2ccccc2OCc2cc(=O)n3ccccc3n2)c(OC)c1 7.91%, CC(C)(C)C1CCC(CC2=C(O)c3ccccc3C(=O)C2=O)CC1 (stereo unspecified) -5.48%, O=C(CN1C(=O)C2CCCCN2c2ccc(C(=O)N3CCCC3)cc21)NCc1cccc(F)c1 (stereo unspecified) -7.56%, Cc1ccccc1CNC(=O)C(=O)NCC(c1cccs1)S(=O)(=O)c1ccc(Cl)cc1 (stereo unspecified) -7.6%, CCc1ccc(NC(=O)Cn2c(=O)n(CC3CCCO3)c(=O)c3cc(OC)c(OC)cc32)cc1 (stereo unspecified) -1.33%, O=C(Cn1c(=O)c2cccn2c2ccc(F)cc21)N1CCN(c2ccccc2)CC1 -12.2%, Cc1ccc(-c2cc(C(F)(F)F)c(C#N)c(SCC(=O)O)n2)cc1 -37.1%, O=c1c(=O)n(Cc2c(F)cccc2Cl)ccn1Cc1ccccc1 -13.4%, CC(=O)N1CCc2c(sc3c2c(=O)n(CCc2ccccc2)c(=O)n3Cc2cccc(C)c2)C1 -19.8%, CC(=O)N1c2ccc(S(=O)(=O)N3CCN(c4cccc(Cl)c4)CC3)cc2CC1C (stereo unspecified) 5%, CCOc1cc(C2C(C(=O)OC)=C(C)NC3=C2C(=O)c2ccccc23)c(Br)cc1O (stereo unspecified) 19.8%, COc1ccc2oc(-c3ccc(C)c(NC(=O)CSc4ccc(Cl)cc4)c3)nc2c1 -1.55%, CC(C)NC(=O)Cn1nc(N2CCN(c3ccccc3)CC2)ccc1=O 4.61%, COCCN1Cc2cccc(C(=O)Nc3ccc(Cl)cc3Cl)c2C1=O -20.5%, C[C@H](O)C(=O)Nc1c(I)c(C(=O)NC(CO)CO)c(I)c(C(=O)NC(CO)CO)c1I -15.4%, CCN(CC)c1ccc(NC(=O)CN2C(=O)c3cccnc3Sc3ccccc32)c(C)c1 -15.4%, COc1cccc(NC(=O)Cn2c(=O)n(CC(=O)NCCc3ccccc3)c(=O)c3sccc32)c1 -10.4%, Cc1ccc(-c2c3c(=O)n(C)c(=O)n(C)c3cn2-c2cc(C)ccc2O)cc1 -14.6%, COc1ccc(N2CCN(C3C(=O)c4ccccc4N3C(C)=O)CC2)cc1 (stereo unspecified) 0.0583%, Cc1c(Cl)cccc1-n1ncc(C(=O)Nc2ccc(F)cc2F)c1C1CCN(C(=O)OC(C)(C)C)CC1 -18.8%, COC(=O)C1CCN(C(c2ccccc2)c2sc3nc(-c4ccco4)nn3c2O)CC1 (stereo unspecified) -22%, O=C1CC(c2nc(-c3ccccc3)no2)CN1c1ccc2c(c1)OCCO2 (stereo unspecified) -13.6%, Cc1c(Cl)cccc1NC(=O)CSc1nc(=O)n(Cc2cccnc2)c2c1CCC2 -11.3%, Cc1ccc(CNC(=O)C2CCN(C(=O)c3cnn(-c4ccccc4)c3-n3cccc3)CC2)cc1 -1.53%, CCOc1cccc(NC(=O)c2ccc(F)c(S(=O)(=O)N(CC)c3cccc(C)c3)c2)c1 -2.56%, Cc1ccc(Cn2cc(S(=O)(=O)c3ccc(C)cc3)c(=O)c3cc(F)c(N4CCCC4)cc32)cc1 -5.82%, Cc1cccc(C(=O)NCC(=O)OCc2cc(=O)n3nc(C4CC4)sc3n2)c1 -8.3%, CCOC(=O)Cn1c(=O)n(C2CCCCC2)c2nc(-c3cccc(OC)c3)nc(C(N)=O)c21 -10.1%, Cc1cc(C)cc(NC(=O)CCc2c(C)nc3c4cccnc4nn3c2C)c1 -11.7%, Cc1cccc(NC(=O)Cc2csc(COc3cccc(C)c3)n2)c1 -20.4%, Cc1ccc(CNC(=O)Cn2c(=O)n(-c3cccc(Cl)c3)c(=O)c3sc4ccccc4c32)cc1 -5.79%, CCOC(=O)C1CCCN(S(=O)(=O)c2csc(C(N)=O)c2)C1 (stereo unspecified) -13.1%, COc1ccccc1N1CCN(C(=O)c2cc3ccc4ccc(C)[nH]c4c3n2)CC1 -22.6%, CCOc1ccc(-c2cc3nc(C4CCN(C(=O)OC(C)(C)C)CC4)c(C(=O)Nc4ccc(C)cc4C)cn3n2)cc1 -11.9%, CCOc1ccc(S(=O)(=O)Nc2ccc(-c3ccc(OC)nn3)cc2)cc1 -13.9%, CCC(Sc1nc2nccnc2c(=O)n1Cc1ccc(C)cc1)C(=O)NC1CCCCC1 (stereo unspecified) -7.9%, CCc1nn2c(=O)c(S(=O)(=O)Nc3cccc(F)c3)c(C)nc2s1 -15.8%, COc1cc2c(c(OC)c1)C(c1cc(OC)c(OC)c(OC)c1)CC(=O)N2 (stereo unspecified) -15.6%, CCCNC(=O)N1CCN(S(=O)(=O)c2ccc3c(ccn3C)c2)CC1 4.92%, Cc1c2cnn(-c3ccccc3)c(=O)c2c(C)n1CC(=O)NCc1ccccc1 -7.43%, Cc1cccc(-n2c(SCC(=O)c3ccccc3)nnc2-c2ccc(Br)cc2)c1 -7.59%, Cc1ccc(Cl)cc1NS(=O)(=O)c1cc2c3c(c1)CC(=O)N3CCC2 -20.3%, COc1cccc(CNC(=O)c2ccc(NC(=O)N3CC(C)Sc4ccccc43)cc2)c1 (stereo unspecified) -12.1%, Cc1ccccc1Nc1c(-c2ccncc2)nc2ccc(Cl)cn12 -8.86%, CC(CNC(=O)CCCn1c(=O)c2cccn2c2cccnc21)c1ccccc1 (stereo unspecified) -0.915%, O=C(c1ccc(CS(=O)c2ccccc2Cl)o1)N1CCN(c2cccc(Cl)c2)CC1 (stereo unspecified) -11.7%, COC(=O)c1ccc(O)cc1 -14.1%, O=C(CSc1cn(CC(=O)N2CCCC2)c2ccccc12)Nc1cc(C(F)(F)F)ccc1Cl -12.7%, CCC1CN(C(=O)Nc2ccc(C(=O)O)cc2)c2cc(Cl)ccc2O1 (stereo unspecified) -4.32%, Cc1ccc2nc(Cl)c3cc(C(=O)NC4CCCCCC4)sc3c2c1 4.73%, COc1cc(NC(=O)c2ccc(NC(=O)N3CCSc4ncccc43)cc2)cc(OC)c1 -1.92%
